Test results from the supplement of paper PMC4166925.
± gives the standard deviation of the averaged measurements. Over roughly 33,000 sequences, “E-score (dimensionless, -0.5 to 0.5)” has its median near -0.046; the highest 2% begin near 0.36. This is one part of the list.

Each sequence was assayed on T1, SpTbr T-box DNA-binding domain (GST fusion) (assay: PBM E-score of 8-mer (E-score (dimensionless, -0.5 to 0.5)); Tbr is Tbrain of the sea star Patiria miniata (Pm) or the sea urchin Strongylocentrotus purpuratus (Sp); higher = stronger binding preference; most listed sequences are background and not binding sites). Details: the construct has about 5 more residues each side.
T1 sequence: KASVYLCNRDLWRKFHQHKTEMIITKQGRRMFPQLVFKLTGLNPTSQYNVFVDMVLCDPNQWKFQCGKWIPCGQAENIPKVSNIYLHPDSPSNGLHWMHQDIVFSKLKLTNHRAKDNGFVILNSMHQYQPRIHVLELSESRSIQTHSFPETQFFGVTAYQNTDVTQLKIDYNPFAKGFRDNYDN
Method in brief: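 Each ungapped 8-mer received an enrichment E-score from the Universal PBM Analysis Suite, averaged over duplicate arrays. The proteins were Tbr T-box DNA-binding domains, covering the whole T-box plus about five flanking residues, fused to GST and expressed in BL21 E. coli at 20 °C before glutathione affinity purification. Universal Agilent oligonucleotide arrays were made double-stranded by primer extension and incubated with 200 nM protein in PBS (pH 7.5). The arrays were then scanned and quantified, and every 8-mer was scored from probe intensities.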

Row | Sequence | PBM E-score of 8-mer
1 | ATCAGTCG | -0.135 ± 0.034
2 | CCTACGTC | -0.0325 ± 0.1
3 | ATGAATTA | -0.045 ± 0.018
4 | AAAACCAA | -0.269 ± 0.13
5 | ATTCACTC | 0.115 ± 0.056
6 | CATTCCCG | -0.0702 ± 0.057
7 | GAATACAA | -0.0294 ± 0.012
8 | AGCGAAAT | 0.0721 ± 0.062
9 | GCGAAAGA | 0.218 ± 0.064
10 | GACAAAAA | 0.0756 ± 0.042
11 | CGTTGCGC | 0.105 ± 0.018
12 | ATTGGCTC | -0.156 ± 0.02
13 | CGAAGGTC | 0.0491 ± 0.018
14 | ATCGGGGG | -0.201 ± 0.039
15 | ACGCCCTC | 0.202 ± 0.011
16 | GACGACCA | -0.105 ± 0.061
17 | AATCAGCA | 0.0165 ± 0.021
18 | ACAACATA | 0.00404 ± 0.089
19 | AATTCGCG | 0.279 ± 0.02
20 | AGGATAAA | -0.0311 ± 0.036
21 | ACCAACGC | 0.138 ± 0.011
22 | AGGAAACA | -0.119 ± 0.031

Row | Sequence | PBM E-score of 8-mer
23 | CTGATGGC | -0.0702 ± 0.006
24 | ATTGTTAG | -0.0503 ± 0.055
25 | GTATTCTA | -0.185 ± 0.035
26 | AATTTGTA | -0.0872 ± 0.025
27 | TAGCTCGA | 0.0764 ± 0.09
28 | CCTTCTGC | 0.16 ± 0.047
29 | ACCTGCGA | 0.344 ± 0.025
30 | GCCGGTAA | -0.0695 ± 0.052
31 | CCGGCCTC | -0.183 ± 0.035
32 | CATCTCGA | -0.105 ± 0.026
33 | AACTAACT | 0.0205 ± 0.047
34 | ATAGTTCC | -0.283 ± 0.011
35 | GCAGAACC | -0.0562 ± 0.028
36 | CAAATTCG | 0.00135 ± 0.13
37 | TCAAAAGA | -0.189 ± 0.02
38 | CCATCACG | 0.0562 ± 0.03
39 | ACACGACC | 0.138 ± 0.063
40 | GTAGTGCA | -0.14 ± 0.038
41 | AGACTTGG | -0.199 ± 0.003
42 | CTGCTCAC | 0.0993 ± 0.014
43 | GAACTGTA | -0.0413 ± 0.033
44 | CTGTCAAC | 0.35 ± 0.023

Row | Sequence | PBM E-score of 8-mer
45 | GGCATCAA | -0.0899 ± 0.025
46 | CAAATAGG | -0.0413 ± 0.064
47 | CGGGATGA | -0.191 ± 0.02
48 | CAGTTTAG | 0.00658 ± 0.011
49 | CAAACCTC | -0.253 ± 0.03
50 | CCCTCGTC | -0.04 ± 0.071
51 | CGTCCTGA | -0.155 ± 0.016
52 | CTCAAAAC | 0.0161 ± 0.055
53 | CAAAACCA | -0.0638 ± 0.0088
54 | GAATCTTA | -0.197 ± 0.05
55 | ATAAGTGC | 0.21 ± 0.023
56 | GATTCACA | 0.392 ± 0.0093
57 | AAAACCTG | 0.102 ± 0.046
58 | GTCTCAAA | -0.197 ± 0.14
59 | GTGGCTGA | 0.139 ± 0.017
60 | GTAGGGAA | -0.166 ± 0.0089
61 | GTCTTACA | -0.123 ± 0.0059
62 | ACAGCTTC | 0.208 ± 0.017
63 | CAAACACC | 0.345 ± 0.0091
64 | ATTCCGGC | 0.0517 ± 0.016
65 | CAATCTGC | -0.036 ± 0.042
66 | GATGAGTA | -0.108 ± 0.016

Row | Sequence | PBM E-score of 8-mer
67 | CAGCGTCC | -0.166 ± 0.011
68 | CTCTAAGA | -0.285 ± 0.036
69 | GACTCAAA | -0.212 ± 0.006
70 | AACGCTCA | 0.0418 ± 0.0019
71 | CCACTTAG | -0.0238 ± 0.042
72 | CCTGCCCC | 0.00261 ± 0.0042
73 | CTATTATC | -0.0418 ± 0.019
74 | AGTCACGA | 0.152 ± 0.0034
75 | CGTTACTA | 0.0564 ± 0.002
76 | CCGGAGGC | -0.172 ± 0.0022
77 | CTCTCACA | 0.3477 ± 0.0025
78 | GTGTGCCA | 0.209 ± 0.039
79 | CTGTGAGA | 0.292 ± 0.0058
80 | AAGCGCTC | -0.0481 ± 0.079
81 | ATTCCTAC | -0.289 ± 0.015
82 | AAGTCAAT | -0.156 ± 0.078
83 | ATTATCCG | -0.0997 ± 0.05
84 | AAGACCGA | -0.134 ± 0.007
85 | AGCGCTAT | 0.0755 ± 0.028
86 | CGTTCTGA | -0.248 ± 0.019
87 | GCAGTTCA | -0.0433 ± 0.15
88 | AGAACTCG | 0.113 ± 0.032

Row | Sequence | PBM E-score of 8-mer
89 | CAGGTTTC | -0.0682 ± 0.024
90 | CCGGGTTA | -0.166 ± 0.042
91 | CTCATTCC | 0.00231 ± 0.058
92 | ACATACCA | 0.106 ± 0.037
93 | GGTCGGGA | -0.0223 ± 0.028
94 | AACGTTAT | 0.0135 ± 0.06
95 | ATTGCGGG | -0.168 ± 0.074
96 | CCGGATCG | -0.114 ± 0.033
97 | ACGTAACT | -0.0794 ± 0.013
98 | AGTATTTG | -0.00803 ± 0.053
99 | GATGACGC | 0.236 ± 0.02
100 | AGAGCAAC | -0.115 ± 0.045
101 | CGCATGGC | -0.0354 ± 0.028
102 | GAAAGACA | -0.142 ± 0.0068
103 | CGGCAATC | 0.0352 ± 0.0047
104 | TAGTAACA | 0.0927 ± 0.018
105 | AAATTGTA | -0.163 ± 0.035
106 | ACGAGTTA | 0.0864 ± 0.011
107 | CCCCAAGA | -0.161 ± 0.021
108 | GCAGCTTA | -0.0311 ± 0.018
109 | CGCTATTC | 0.0952 ± 0.022
110 | AATGCCTC | -0.2299 ± 0.0017
